Experimental data from PMC9880526.
Values joined by “and” are separate entries in the source; they are usually repeats but may differ in a detail not shown here. Equal values may be shown once. One block for each binder: values may come before it.

Legend:
Conditions in all cases: remark: other sources report otherwise
[1] = target: T1, properdin (from normal human plasma or serum) (human), P27918; assay: SEC; 200 ug purified properdin in PBS on a Phenomenex BioSep SEC s4000 column, 0.3 ml/min; properdin in the fractions quantified by sandwich ELISA; oligomer ratio from summed fractions
T1 chain: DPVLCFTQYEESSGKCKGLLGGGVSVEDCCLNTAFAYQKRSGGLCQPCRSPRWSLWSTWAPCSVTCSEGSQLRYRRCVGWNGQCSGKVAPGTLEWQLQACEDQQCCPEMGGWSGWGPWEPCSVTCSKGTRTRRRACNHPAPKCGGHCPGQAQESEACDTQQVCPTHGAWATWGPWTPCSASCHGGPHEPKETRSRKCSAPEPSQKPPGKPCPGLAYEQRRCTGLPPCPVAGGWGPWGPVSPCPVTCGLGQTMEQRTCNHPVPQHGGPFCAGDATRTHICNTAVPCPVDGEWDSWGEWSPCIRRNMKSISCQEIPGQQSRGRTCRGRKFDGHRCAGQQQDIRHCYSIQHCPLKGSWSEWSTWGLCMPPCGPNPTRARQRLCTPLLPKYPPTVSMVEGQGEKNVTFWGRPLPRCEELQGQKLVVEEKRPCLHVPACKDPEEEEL

[2] = target: T1, properdin (from normal human plasma or …); assay: SEC; normal human serum diluted to 4 ug or 150 ng properdin with 1% BSA and 20 mM EDTA in PBS, same column; properdin in the fractions quantified by sandwich ELISA; oligomer ratio from summed fractions
[3] = target: T1, properdin (from normal human plasma or …); assay: as above
[4] = target: T2, neutrophil-derived properdin (human (endogenous in neutrophils of donors)), P27918; assay: SEC; supernatant of PMA-activated neutrophils diluted to 4 ug or 150 ng properdin with 1% BSA and 20 mM EDTA in PBS, same column; properdin in the fractions quantified by sandwich ELISA; oligomer ratio from summed fractions
T2 chain: T1 chain

B1: properdin (from normal human plasma or serum), P27918 28-469 (natural protein)
chain: T1 chain
percent of properdin as P2 (P4:P3:P2 ratio) [1]: 25% | percent of properdin as P3 (P4:P3:P2 ratio) [1]: 57% | percent of properdin as P4 (P4:P3:P2 ratio) [1]: 18% | stoichiometry N [1]: 4 and 3 and 2 | percent of properdin as P2 (P4:P3:P2 ratio) [2]: 27% | percent of properdin as P3 (P4:P3:P2 ratio) [2]: 52% | percent of properdin as P4 (P4:P3:P2 ratio) [2]: 20% | stoichiometry N [2]: 4 and 3 and 2 | percent of properdin as P2 (P4:P3:P2 ratio) [3]: 29% | percent of properdin as P3 (P4:P3:P2 ratio) [3]: 43% | percent of properdin as P4 (P4:P3:P2 ratio) [3]: 29%

percent of properdin as P2 (P4:P3:P2 ratio), average of 5 donors [4]: 48% | percent of properdin as P3 (P4:P3:P2 ratio), average of 5 donors [4]: 34% | percent of properdin as P4 (P4:P3:P2 ratio), average of 5 donors [4]: 18% | stoichiometry N [4]: 4 and 3 and 2
B2: neutrophil-derived properdin, P27918 28-469 (natural protein)
chain: T1 chain
